Results: ChEMBL document CHEMBL1201862, “PubChem BioAssay data set” (2004)
Several values for one entry are separate records, joined by “and”; a condition that tells them apart may be missing. Equal values may be shown once.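 Tested at 5 concentrations; 48 h exposure; 96-well plates; endpoints linearly interpolated, else capped at highest concentration. GI50 = concentration required for 50% inhibition of growth.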 Activity calls are given as the source filed them. Cut-off read from the data, not from the text of the source: active = GI50 up to about 1.1 µM and inactive = higher. Peptide text beside a SMILES is read from it. * marks the point of attachment. X33 = O=C(c1ccc(-c2ccc(Cl)cc2Cl)o1)*

Each compound was assayed on NCI-H322M (assay: NCI-60 cell line screen, 48 h).
For `C=CCC(N(C)C(=O)[C@H](Cc1ccccc1)NC(=O)OCc1ccccc1)P(=O)(Oc1ccccc1)Oc1ccccc1` (stereo partly specified), the GI50 was inactive: > 100 µM.
`C/C(=N/OCCC(=O)O)C1CC1` was tested, and the GI50 was inactive: > 100 µM.
For `c1ccc(/N=C2/SC3=Nc4cccc5cccc(c45)N3/C2=N/c2ccccc2)cc1`, the GI50 was inactive: > 100 µM.
In the case of `CCOC(=O)CCc1cccc2c1oc1c(CCNC(=O)OCC3c4ccccc4-c4ccccc43)cccc12`, the GI50 is reported as inactive: 12.1 µM.
With `CCOC(=O)NC(Nc1ccc(S(=O)(=O)Nc2ccc(OC)nn2)cc1)(C(F)(F)F)C(F)(F)F` the GI50 was inactive: 43.1 µM.
With `COc1ccc(/C=C2\CN(C)CC3=C2OC(N)=C(C#N)C3c2ccc(OC)cc2)cc1` (stereo unspecified) the GI50 was inactive: 50.9 µM.
With `CN(NC(=O)/C(=C/c1ccc(Cl)cc1)NC(=O)c1ccccc1)c1cn[nH]c(=O)c1Cl` the GI50 was inactive: > 100 µM.
In the case of `CCOC(=O)C1=C(N)N2C(=N[C@H]3CCCC[C@@H]32)N=C1`, the GI50 is reported as inactive: > 100 µM.
In the case of `O=C(O)Cn1cnc2c(O)nc(Nc3ccccc3)nc21`, the GI50 is reported as inactive: > 100 µM.
For `O=C1C(Cl)=C(Cl)C(=O)N1c1ccccc1Cl`, the GI50 was inactive: > 100 µM.
In the case of `COC(=O)C1(Cc2cccc(C)c2)Cc2c(C)cccc2C1=O` (stereo unspecified), the GI50 is reported as inactive: > 100 µM.
In the case of `Nc1nc(Cl)cc(NC23CC4CC(CC(C4)C2)C3)n1`, the GI50 is reported as inactive: 83.9 µM.
In the case of `CN(C)C1=NC2=S(SC(Nc3ccccc3)=N2)S1` (stereo unspecified), the GI50 is reported as inactive: 43.6 µM.
For `NS(=O)(=O)c1ccc(NC2(C(=O)O)CCCC2)cc1`, the GI50 was inactive: > 100 µM.
`CC(=O)ON(C(C)=O)c1ccc(-c2nc3ccccc3s2)cc1` was tested, and the GI50 was inactive: 31.9 µM.
With `NCCSc1nc(-c2ccccc2)c(-c2ccccc2)o1` the GI50 was inactive: > 100 µM.
With `Nc1ccc(C(=O)NN2C(=O)C(Cl)C2c2cccc(O)c2)cc1` (stereo unspecified) the GI50 was inactive: 16.1 µM.
`CSC12c3cc(C)n(-c4ccccc4)c3CC(C)(C)CN1C(=O)C2Oc1ccccc1` (stereo unspecified) was tested, and the GI50 was inactive: 30.7 µM.
`CCC1(c2ccc(N)cc2)CCC(=O)NC1=O` (stereo unspecified) [AMINOGLUTETHIMIDE] was tested, and the GI50 was inactive: 3690 µM.
In the case of `CC1C2CC(C(S(=O)(=O)N3CCOCC3)/C2=N\O)C1(C)C` (stereo unspecified), the GI50 is reported as inactive: > 100 µM.
`N#CCCN(C1=NN(C(=O)CC(=O)Nc2ccc(Cl)cc2)C(c2ccccc2)C1)c1ccc(Cl)cc1` (stereo unspecified) was tested, and the GI50 was inactive: > 100 µM.
For `COc1ccc2c(c1)CCCN1Cc3cc(OC)c(OC)cc3CC21` (stereo unspecified), the GI50 was inactive: > 100 µM.
With `CSCSCC(CO)NC(=O)/C(C)=C\c1c(C)[nH]c(=O)[nH]c1=O` (stereo unspecified) the GI50 was inactive: > 250 µM.
For `OC(c1nc2ccccc2s1)(C(F)(F)F)C(F)(F)F`, the GI50 was inactive: > 100 µM.
For `O=S(=O)(O)c1ccc2c(/N=N/c3cccc4ccccc34)c(O)c(S(=O)(=O)O)cc2c1`, the GI50 was inactive: > 100 µM.
For `COc1ccc(/C=C/C(=O)NCC(NC(=O)/C=C/c2ccc(OC)c(OC)c2)C(=O)O)cc1OC` (stereo unspecified), the GI50 was inactive: > 100 µM.
`COc1ccc(/N=N/c2c(C)c(C#N)c(=S)n(C3OC(COC(C)=O)C(OC(C)=O)C(OC(C)=O)C3OC(C)=O)c2C)cc1` (stereo unspecified) was tested, and the GI50 was inactive: > 100 µM.
With `Cc1ccc(/C=N/Nc2cc(C)c3ccccc3n2)s1` the GI50 was inactive: 7.11 µM.
For `C=C(Cl)C(Cl)(CBr)CCC(Br)C(C)(C)Cl` (stereo unspecified), the GI50 was inactive: 2.99 µM and inactive: 1.46 µM and inactive: 1.81 µM.
`N#CC1(Cc2ccccc2Cl)c2ccccc2C=CN1C(=O)c1ccccc1` (stereo unspecified) was tested, and the GI50 was inactive: > 100 µM.
`CS(=O)(=O)OCCN1CCN(C(=O)c2cccc3c(Nc4ccc(S(N)(=O)=O)cc4)c4ccccc4nc23)CC1` was tested, and the GI50 was inactive: > 100 µM.
For `CCC1(N=[N+]=[N-])C(=O)c2ccccc2N(C)C1=O` (stereo unspecified), the GI50 was inactive: > 100 µM.
With `O=C(O)c1ccc2c(c1)C(=O)N(c1ccc(S(=O)(=O)c3ccc(N4C(=O)c5ccc(C(=O)O)cc5C4=O)cc3)cc1)C2=O` the GI50 was inactive: > 100 µM.
In the case of `Oc1ncc(N(CCCl)CCCl)c(O)n1` [URACIL MUSTARD], the GI50 is reported as inactive: 115 µM.
`COc1ccc(C2(CC(C)O)SCCCS2)cc1` (stereo unspecified) was tested, and the GI50 was inactive: > 100 µM.
With `COc1ccc(NC(=S)N/N=C/c2cccc(C)n2)cc1` the GI50 was inactive: 11.9 µM.
For `Cc1cc(Br)cc(C)c1NC(=O)C(=O)C(C(=O)c1ccc(Cl)c(Cl)c1)C1OC(=O)c2ccccc21` (stereo unspecified), the GI50 was inactive: > 100 µM.
In the case of `CCC(C)C(NC(=O)CNC(=O)C(Cc1ccccc1)NC(=O)C1CCCN1C(=O)c1ccc(-c2ccc(Cl)cc2Cl)o1)C(=O)OC` (stereo unspecified) (X33-PFGI-OMe; configuration not given here), the GI50 is reported as inactive: 48.6 µM.
In the case of `O=C(O)C(Cc1ccc2c(c1)CCC2)(Cc1ccc2c(c1)CCC2)C(=O)O`, the GI50 is reported as inactive: > 100 µM.
In the case of `CC(C)(C)OC(=O)C1C(=O)NC(=O)CC1C(OCc1ccccc1)C(OCc1ccccc1)C(COCc1ccccc1)OCc1ccccc1` (stereo unspecified), the GI50 is reported as inactive: > 100 µM.
For `O=C1C(Cl)C(c2ccc(Cl)cc2)N1n1cnc2ccccc2c1=O` (stereo unspecified), the GI50 was inactive: > 100 µM.
With `CN(C)CC1CCCC(CN(C)C)C1OC(=O)c1ccccc1` (stereo unspecified) the GI50 was inactive: > 100 µM.
In the case of `CC(C)(C)OC(=O)NC1CCC(C(C)(C)C)CC1` (stereo unspecified), the GI50 is reported as inactive: > 100 µM.
`COc1cccc(/C=C/C2=NN(c3cccc(S(=O)(=O)O)c3)C3(C2)SCC(=O)N3c2nc3ccccc3s2)c1` (stereo unspecified) was tested, and the GI50 was inactive: > 100 µM.
With `CN1CCN(C)C12C=c1ccccc1=CC21CC1` the GI50 was inactive: 61.5 µM.
With `CC(O)c1ccc(C(O)/C(=N\NC(=O)c2ccncc2)c2nc3ccc([N+](=O)[O-])cc3nc2O)cc1` (stereo unspecified) the GI50 was inactive: 95.3 µM.
